Experimental findings from PMC4336329 (PLoS ONE, 2015) are described below.

Molecules are shown by their SMILES. The whole screen tested about 310,000 compounds, of which about 14,000 (4.5%) showed an effect of 50% or more. Effects have a minus sign here. Some of the results follow.
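Also: peak tail current of the secondary pulse compared with the same well before compound.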

The target in this experiment is human ether-à-go-go-related gene (hERG) potassium channel (human, UniProt Q12809). The experiment is described as follows: primary screen, population patch clamp on CHO cells stably expressing hERG.
Chain of human ether-à-go-go-related gene (hERG) potassium channel (Q12809 whole entry, looked up): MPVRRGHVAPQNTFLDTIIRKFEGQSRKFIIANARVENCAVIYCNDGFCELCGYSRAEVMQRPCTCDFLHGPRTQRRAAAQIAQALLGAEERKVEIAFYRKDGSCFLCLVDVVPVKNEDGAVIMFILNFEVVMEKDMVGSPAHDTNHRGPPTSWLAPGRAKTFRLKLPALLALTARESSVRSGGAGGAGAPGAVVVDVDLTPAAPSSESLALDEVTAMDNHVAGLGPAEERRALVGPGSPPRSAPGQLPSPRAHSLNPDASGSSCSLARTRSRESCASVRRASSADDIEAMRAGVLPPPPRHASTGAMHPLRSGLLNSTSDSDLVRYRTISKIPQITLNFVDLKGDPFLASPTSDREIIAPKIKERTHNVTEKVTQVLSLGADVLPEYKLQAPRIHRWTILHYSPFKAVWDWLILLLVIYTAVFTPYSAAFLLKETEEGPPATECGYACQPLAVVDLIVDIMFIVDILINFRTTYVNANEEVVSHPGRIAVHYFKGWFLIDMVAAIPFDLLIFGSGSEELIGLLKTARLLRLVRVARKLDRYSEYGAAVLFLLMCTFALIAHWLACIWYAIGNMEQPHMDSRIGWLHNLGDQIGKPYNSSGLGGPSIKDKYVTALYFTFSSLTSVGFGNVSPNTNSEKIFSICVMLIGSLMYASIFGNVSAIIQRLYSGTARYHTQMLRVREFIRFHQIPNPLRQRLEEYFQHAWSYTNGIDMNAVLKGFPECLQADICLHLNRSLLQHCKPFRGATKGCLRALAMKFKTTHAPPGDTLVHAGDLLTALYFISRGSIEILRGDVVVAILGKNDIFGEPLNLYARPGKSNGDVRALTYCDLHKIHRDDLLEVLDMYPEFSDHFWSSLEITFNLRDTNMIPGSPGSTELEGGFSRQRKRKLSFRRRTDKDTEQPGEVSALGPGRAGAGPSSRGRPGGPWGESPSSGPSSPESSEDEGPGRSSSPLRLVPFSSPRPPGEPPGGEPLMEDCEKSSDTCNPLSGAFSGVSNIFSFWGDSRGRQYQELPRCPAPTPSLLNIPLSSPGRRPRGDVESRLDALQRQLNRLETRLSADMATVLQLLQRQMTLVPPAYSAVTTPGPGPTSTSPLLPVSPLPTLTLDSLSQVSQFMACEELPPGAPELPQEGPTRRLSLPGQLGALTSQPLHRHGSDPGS
On to `COc1ccc(CN2CCC(C(=O)Nc3ccc(Oc4cccnc4)cc3)CC2)cc1`, for which the “hERG current change (%, negative = inhibition) at 10uM” value is -69.3%.

As to `O=C(CSc1nccn1-c1ccccc1)NO`, the “hERG current change (%, negative = inhibition) at 10uM” value is listed as 7.96%.

Consider `CC1CCN(C(=O)Cn2c(=O)n(Cc3ccco3)c(=O)c3sccc32)CC1`, for which the “hERG current change (%, negative = inhibition) at 10uM” value is -7.77%.

On to `O=C(Cc1ccccc1)NCCC1=CCCCC1`, for which the “hERG current change (%, negative = inhibition) at 10uM” value is 9.32%.

On to `CCC(=O)c1ccc(OCC(=O)OC(C)C(=O)N2CCc3ccccc32)cc1` (centres unmarked), for which the “hERG current change (%, negative = inhibition) at 10uM” value is listed as 5.94%.

`NNC(=O)CNC(=O)C12CC3CC(CC(C3)C1)C2`: the “hERG current change (%, negative = inhibition) at 10uM” value worked out at 17.3%.

Consider `O=C(Cn1cnc2c(nnn2Cc2ccccc2F)c1=O)N1CCN(c2ccccc2)CC1`, for which the “hERG current change (%, negative = inhibition) at 10uM” value is reported as -31.2%.

In the case of `CC(C)c1onc(C(=O)N2CCOCC2)c1[N+](=O)[O-]`, the “hERG current change (%, negative = inhibition) at 10uM” value is 7.71%.

Regarding `O=C(NC1CCCCC1)C(c1ccncc1)N(Cc1ccc2c(c1)OCO2)C(=O)C(F)(F)F` (centres unmarked), the “hERG current change (%, negative = inhibition) at 10uM” value is recorded as -7.56%.

`O=S(=O)(NCc1ccccc1)c1ccc(Cl)cc1`: the “hERG current change (%, negative = inhibition) at 10uM” value is 0.117%.

For `O.O=c1c2sc3nc(N4CCOCC4)c4c(c3c2nnn1Cc1ccccc1)CCCC4`, the “hERG current change (%, negative = inhibition) at 10uM” value is recorded as 1.88%.

In the case of `COc1cccc(NC(=O)Cn2c(=O)n(CCC(=O)NC3CCN(Cc4ccccc4)CC3)c(=O)c3ccccc32)c1`, the “hERG current change (%, negative = inhibition) at 10uM” value is given as -57.6%.

`NC(=O)CSc1nnc(Cc2cccs2)n1C1CCCCC1`: the “hERG current change (%, negative = inhibition) at 10uM” value stood at 7.21%.

On to `COc1ccc(C(NC(=O)c2ccc(F)cc2)c2ccccc2)cc1` (centres unmarked), for which the “hERG current change (%, negative = inhibition) at 10uM” value was -17.2%.

For the compound `Fc1cccc(Cl)c1Cn1nnc2c(N3CCC4(CC3)OCCO4)ncnc21`, the “hERG current change (%, negative = inhibition) at 10uM” value amounted to 11.4%.

`O=C(CNC(=O)c1ccccc1F)NC1CC1`: the “hERG current change (%, negative = inhibition) at 10uM” value is 2.71%.

With `Cc1oc(-c2ccccc2Cl)nc1CS(=O)(=O)CC(=O)NC1CCCC1`, the “hERG current change (%, negative = inhibition) at 10uM” value is reported as -6.93%.

For `COc1ccc(S(=O)(=O)N2CCN(c3c(C)cccc3C)CC2)cc1OC`, the “hERG current change (%, negative = inhibition) at 10uM” value was -13.6%.

`COc1ccc2c(c1)S(=O)(=O)c1ccccc1N2`: the “hERG current change (%, negative = inhibition) at 10uM” value was -3.49%.

With `Cc1ccc(S(=O)(=O)N2CCN(Cc3ccccc3C(F)(F)F)CC2)cc1`, the “hERG current change (%, negative = inhibition) at 10uM” value is recorded as -5.53%.

Regarding `COc1ccc(NC(=O)N2CCC(CO)(CC3CCCCO3)CC2)c(OC)c1` (centres unmarked), the “hERG current change (%, negative = inhibition) at 10uM” value is 22.1%.

On to `CCN(Cc1ccc2c(c1)OCO2)C(=O)/C=C/c1cccc(Br)c1`, for which the “hERG current change (%, negative = inhibition) at 10uM” value amounted to 9.75%.

As to `Cc1cccc(C(=O)Nc2nc(C)c(C(=O)Nc3ccc4c(c3)CCC4)s2)c1`, the “hERG current change (%, negative = inhibition) at 10uM” value came out at 6.7%.

Take `Cc1cc(Oc2nnnn2-c2ccccc2)ccc1Cl`: the “hERG current change (%, negative = inhibition) at 10uM” value is listed as -15.3%.

Take `COc1ccc2c(c1)C(c1ccccc1)NC(=O)C2` (centres unmarked): the “hERG current change (%, negative = inhibition) at 10uM” value is given as 4.01%.

For `CCOC(=O)c1c(NC(=O)CC2Nc3cc(C)c(C)cc3NC2=O)sc(C)c1C` (centres unmarked), the “hERG current change (%, negative = inhibition) at 10uM” value was 3.52%.

`Cc1cc(NS(=O)(=O)c2ccc(Nc3nc(-c4ccc(O)cc4)cs3)cc2)no1`: the “hERG current change (%, negative = inhibition) at 10uM” value came out at 8.1%.

Take `O=C(O)c1cccc(COc2cccc3ccccc23)c1`: the “hERG current change (%, negative = inhibition) at 10uM” value is recorded as 8.71%.

Turning to `Cc1ccc(/C=C/C(=O)c2ccccc2O)cc1`, the “hERG current change (%, negative = inhibition) at 10uM” value was found to be 29.5%.

Turning to `CCCCC1=CC2=CC(=O)C(C)(OC(=O)CC)C(=O)C2=CN1c1ccccc1` (centres unmarked), the “hERG current change (%, negative = inhibition) at 10uM” value worked out at 1.5%.

As to `c1ccc(-c2cc3c(nn2)CCc2nonc2-3)cc1`, the “hERG current change (%, negative = inhibition) at 10uM” value was found to be 0.384%.

Take `O=C(NC(=S)Nc1ccc2c(c1)C(=O)c1ccccc1C2=O)c1ccc(F)cc1`: the “hERG current change (%, negative = inhibition) at 10uM” value was determined as 19.7%.

For `O=C1CC(=O)N(c2cccc(C(F)(F)F)c2)C(=O)N1`, the “hERG current change (%, negative = inhibition) at 10uM” value is given as 25%.

Turning to `CCCOC(=O)NC1CCS(=O)(=O)C1` (centres unmarked), the “hERG current change (%, negative = inhibition) at 10uM” value is reported as 5.66%.

On to `Cc1c(C(=O)NCCc2ccccc2)oc2ccccc12`, for which the “hERG current change (%, negative = inhibition) at 10uM” value turned out to be 1.98%.

Turning to `CCc1nnc2n1N=C(c1ccc([N+](=O)[O-])cc1)CS2`, the “hERG current change (%, negative = inhibition) at 10uM” value is -65.5%.

`c1ccc(-c2nc(N3CCOCC3)c3ccccc3n2)nc1`: the “hERG current change (%, negative = inhibition) at 10uM” value is recorded as -15.9%.

In the case of `N#CCSc1nc2ccccc2c2nc3ccccc3n12`, the “hERG current change (%, negative = inhibition) at 10uM” value was -0.29%.

Take `CC1CCc2cc(F)ccc2N1C(=O)c1ccc2c(c1)OCO2` (centres unmarked): the “hERG current change (%, negative = inhibition) at 10uM” value was -8.64%.

As for `C/C(=N/NS(=O)(=O)c1cccc([N+](=O)[O-])c1)c1ccc2c(c1)OCO2`, the “hERG current change (%, negative = inhibition) at 10uM” value came to 6.48%.

Regarding `O=C(Nc1ccccc1)C1(c2ccccc2)CC1(Cl)Cl` (centres unmarked), the “hERG current change (%, negative = inhibition) at 10uM” value is recorded as -18.1%.

Regarding `COc1ccc2c(c1OC)C(=O)OC2CC(=O)c1ccc(N(C)C)cc1` (centres unmarked), the “hERG current change (%, negative = inhibition) at 10uM” value is listed as -1.02%.

Consider `CCN(CCn1cccn1)C(=O)C1CCC(=O)N(CCN2CCOCC2)C1` (centres unmarked), for which the “hERG current change (%, negative = inhibition) at 10uM” value came to 6.14%.

Turning to `CC(C)C[C@@]12C(=O)N(c3cccc(Cl)c3)C(=O)N1[C@H](c1ccc(Br)cc1)[C@@H]1C(=O)N(C(C)(C)C)C(=O)[C@@H]12`, the “hERG current change (%, negative = inhibition) at 10uM” value was 22.7%.

On to `CC1(c2ccc(OC(F)F)cc2)NC(=O)N(CC(=O)Nc2ccc(F)cc2)C1=O` (centres unmarked), for which the “hERG current change (%, negative = inhibition) at 10uM” value is on record as -45.5%.

Take `Clc1ccccc1Nc1nc(-c2cccnc2)cs1`: the “hERG current change (%, negative = inhibition) at 10uM” value came out at 11.9%.

For the compound `O=C(CCN=C1NS(=O)(=O)c2ccccc21)OCC(=O)c1ccccc1Cl`, the “hERG current change (%, negative = inhibition) at 10uM” value was -7.78%.

As for `N#Cc1ccccc1OCC(=O)OCC(=O)N1CCN(C(=O)c2ccco2)CC1`, the “hERG current change (%, negative = inhibition) at 10uM” value was 3.22%.

On to `O=C(COc1ccc2ccccc2c1)N1c2ccccc2Sc2ccccc21`, for which the “hERG current change (%, negative = inhibition) at 10uM” value was -2.83%.

Regarding `COc1ccc(C)cc1N1C(=N)/C(=C2/Nc3ccccc3S2)C(c2ccccc2)C1=O` (centres unmarked), the “hERG current change (%, negative = inhibition) at 10uM” value was determined as 5.63%.

For `COc1ccc2c(c1)C1NC(=S)N[C@@](C)(O2)C1C(=O)Nc1ccccc1` (some centres unmarked), the “hERG current change (%, negative = inhibition) at 10uM” value was -3.49%.

In the case of `COc1cccc(-c2cc(C(F)(F)F)n3ncc(C(=O)O)c3n2)c1`, the “hERG current change (%, negative = inhibition) at 10uM” value is -1.46%.

Consider `CCOC(=O)Cn1c(C)cc(COC)c(C#N)c1=O`, for which the “hERG current change (%, negative = inhibition) at 10uM” value is 18.6%.

As for `CCc1csc(CCNC(=O)C2CCC(=O)N(Cc3cccc(C(F)(F)F)c3)C2)n1` (centres unmarked), the “hERG current change (%, negative = inhibition) at 10uM” value came out at 4.29%.

Consider `Cc1ccc(S(=O)(=O)N2CCN(C(=O)Cc3ccccc3)CC2)cc1C`, for which the “hERG current change (%, negative = inhibition) at 10uM” value is -2.97%.

Regarding `CCc1ccc(OCC(=O)N(Cc2cccs2)C2CCS(=O)(=O)C2)cc1` (centres unmarked), the “hERG current change (%, negative = inhibition) at 10uM” value is given as -47.8%.
